Experimental data from paper PMC4336329 (PLoS ONE, 2015).
Among all 310,000 compounds or so, about 2,200 (0.71%) showed an effect of 50% or more. Effects have a minus sign here. The list shows a part of the results.

Biological target: human ether-à-go-go-related gene (hERG) potassium channel (human, UniProt Q12809)
Assay: primary screen, population patch clamp on CHO cells stably expressing hERG

Sequence of human ether-à-go-go-related gene (hERG) potassium channel (Q12809 whole entry, looked up): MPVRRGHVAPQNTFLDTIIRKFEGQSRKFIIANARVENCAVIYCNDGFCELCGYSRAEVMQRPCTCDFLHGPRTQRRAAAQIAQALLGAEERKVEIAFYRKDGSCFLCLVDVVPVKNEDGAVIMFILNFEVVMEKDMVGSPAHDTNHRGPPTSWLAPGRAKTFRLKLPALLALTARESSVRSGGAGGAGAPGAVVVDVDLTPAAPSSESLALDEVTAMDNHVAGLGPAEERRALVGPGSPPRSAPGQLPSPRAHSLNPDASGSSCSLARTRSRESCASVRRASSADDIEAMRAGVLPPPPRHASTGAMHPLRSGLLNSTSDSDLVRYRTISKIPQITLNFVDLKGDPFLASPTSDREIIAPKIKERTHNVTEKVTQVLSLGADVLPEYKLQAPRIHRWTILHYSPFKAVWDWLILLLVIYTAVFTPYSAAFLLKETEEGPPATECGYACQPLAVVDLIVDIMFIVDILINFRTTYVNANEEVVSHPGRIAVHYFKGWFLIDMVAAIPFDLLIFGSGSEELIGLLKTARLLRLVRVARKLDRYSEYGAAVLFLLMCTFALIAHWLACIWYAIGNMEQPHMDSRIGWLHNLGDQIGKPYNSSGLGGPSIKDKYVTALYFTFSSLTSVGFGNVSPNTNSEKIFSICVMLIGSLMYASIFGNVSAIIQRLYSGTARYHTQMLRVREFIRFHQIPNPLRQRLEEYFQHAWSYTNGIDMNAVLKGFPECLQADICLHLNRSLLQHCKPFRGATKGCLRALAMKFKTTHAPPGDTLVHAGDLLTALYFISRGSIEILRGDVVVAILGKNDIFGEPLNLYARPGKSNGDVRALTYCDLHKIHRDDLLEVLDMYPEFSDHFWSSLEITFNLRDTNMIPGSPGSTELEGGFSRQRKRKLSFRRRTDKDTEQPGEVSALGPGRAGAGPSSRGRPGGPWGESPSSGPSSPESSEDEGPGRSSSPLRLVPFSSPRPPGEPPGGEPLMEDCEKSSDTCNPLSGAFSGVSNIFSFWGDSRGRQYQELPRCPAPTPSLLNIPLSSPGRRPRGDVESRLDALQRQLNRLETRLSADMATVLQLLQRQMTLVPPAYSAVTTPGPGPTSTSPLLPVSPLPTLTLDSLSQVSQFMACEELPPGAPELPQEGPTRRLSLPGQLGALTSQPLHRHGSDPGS

Compound | hERG current change (%, negative = inhibition) at 1uM [%]
O=C(O)c1ccc(/C=N/N2CCN(Cc3cccc4ccccc34)CC2)cc1 | 8.98
COc1ccc(-c2oc3ncn(CCN4CCOCC4)c(=N)c3c2-c2ccc(OC)cc2)cc1 | -7.75
Cc1cc(C)c(NC(=O)CSc2nnc(-c3ccccn3)n2N)c(Cl)c1 | 8.52
Cc1ccc(NC(=O)CN(C)C(=O)c2cc3c(s2)CCCCC3)cc1 | 7.6
C=CCn1c(SCC(=O)Nc2ncc(Cc3ccc(Br)cc3)s2)nnc1-c1ccncc1 | 13
C#CCNC(=O)C1CCN(c2ccc(S(=O)(=O)N3CCOCC3)cc2Cl)CC1 | 6.8
O=C(NC(=S)Nc1ccccc1C(=O)O)c1cncc(Br)c1 | 18.7
Cc1cc(C)cc(N(CC(=O)NCCSc2ccccn2)S(=O)(=O)c2ccccc2)c1 | -26.8
O=C(NCc1c(Cl)cccc1Cl)c1ccc2nnsc2c1 | 11.4
O=C1CCCCC1C(Nc1ccc(Cl)cc1)c1ccccc1 (centres unmarked) | 0.276
O=C(CSCc1ccc(Cl)cc1)Nc1ccc2c(c1)OCCO2 | -0.795
Cc1c(C(=O)N(C)CCCCN2CCOCC2)oc2c(F)cccc12 | 13.7
CC(=O)Nc1cccc(NC(=O)Cc2ccc3ccccc3c2)c1 | 13
O=C(Nc1ncc(S(=O)(=O)c2ccc([N+](=O)[O-])cc2)s1)c1cccnc1 | 8.48
O=C(O)CSCc1nc2ccccc2[nH]1 | 13.9
COC(=O)c1ccccc1S(=O)(=O)N1CCC(C(=O)OC(C)C(=O)Nc2ccccc2OC)CC1 (centres unmarked) | -8.9
CCN1CCN(CCc2nc3cc(NC(=O)COc4ccccc4)ccc3n2C)CC1 | 0.262
CCN(c1ccc(OC)cc1)S(=O)(=O)c1nnc(NC(=O)C2CCCCC2)s1 | 10.7
COc1ccc2c(c1)c(=O)c(C(=O)c1ccccc1)cn2Cc1ccccc1 | -21.1
NS(=O)(=O)c1ccc(CCNC(=S)Nc2ccc(F)cc2)cc1 | 10.5
CN(C)CCn1c(NCc2ccc3c(c2)OCO3)nc2ccccc21.Cl | -2.76
CCNCCNC(=O)c1c(O)c2c([nH]c1=O)CCCC2 | 6.63

Compound | hERG current change (%, negative = inhibition) at 1uM [%]
COc1cccc(NS(=O)(=O)c2cc3c(cc2C)N(C(C)=O)CCO3)c1 | 8.57
Clc1cc2c(c(CSc3nc4ccccc4n4cccc34)c1)OCOC2 | 13.1
COc1nc(-c2ccc(Cl)cc2)ccc1-c1noc(-c2ccco2)n1 | 6.89
CC(C)S(=O)(=O)c1cnc(-c2cccnc2)nc1N | 14.7
Cc1cc2cc(CCNS(=O)(=O)c3ccc(F)cc3)c(=O)[nH]c2cc1C | 5.7
Cc1ccccc1NC(=O)Cc1nc(COC(=O)c2ccc(O)cc2O)cs1 | -3.47
O=C(NC(C(Cl)Cl)N1CCOCC1)c1ccccc1 (centres unmarked) | 9.9
CN(Cc1ccccc1)C(=O)COC(=O)c1cc(NS(=O)(=O)c2cccs2)ccc1O | 8.4
Cc1nn(C)c(C)c1NC(=O)CSc1nnc(C)n1-c1ccccc1 | -0.866
COc1cccc(NC(=O)C(C)OC(=O)c2n[nH]c3ccccc23)c1 (centres unmarked) | 3.85
CN(C)CCN(C(=O)c1ccc(S(=O)(=O)N2CCc3ccccc32)cc1)c1nc2ccc(F)cc2s1.Cl | -6.93
O=C(CSc1nnnn1Cc1ccccc1)NC1CCCCC1 | 6.27
COc1cccc(N2CCN(S(=O)(=O)c3ccc4c(c3)oc(=O)n4C)CC2)c1 | 22.7
COc1cc(/C=N/NC(=O)c2ccoc2C)cc(OC)c1OC | 10.5
Cc1oc(C)c(C(N)=O)c1C(N)=O | -0.345
O=C(c1ccccc1)N1CCN(c2ccc(NCc3ccc4c(c3)OCO4)cc2)CC1 | 7.27
Cc1ccc(-c2nc(-c3nccc4ccccc34)oc2-c2ccccc2)cc1 | 12.2
Cc1ccc(SCCC(=O)N/N=C/c2ccccc2O)cc1 | 11.6
CC(C)CN(C(=O)c1ccc(-n2cncn2)c([N+](=O)[O-])c1)C1CCS(=O)(=O)C1 (centres unmarked) | 1.22
CC(C)c1nc2sc3c(c2c(=O)[nH]1)CC(C)(C)OC3 | 11.4
CC(C)NC(=O)Cn1c(=O)c2c(ncn2Cc2ccccc2)n(Cc2ccccc2)c1=O | 2.78
O=C(c1cnn(-c2ccccc2)c1)c1cc(Br)ccc1O | 10.2

Compound | hERG current change (%, negative = inhibition) at 1uM [%]
O=C(CSc1nnc(COc2ccc(Cl)cc2)o1)NC1CC2CCC1C2 (centres unmarked) | 10.9
CCN(c1ccccc1)S(=O)(=O)c1ccc(Cl)c(NC(=O)CSc2ncn[nH]2)c1 | 8.02
CCCC(=O)Nc1ccc(C(=O)NCc2ccccc2Cl)cc1 | 16.6
Oc1ccccc1/C=N/Nc1cccc2cccnc12 | -8.07
Br.CCCC1CC(=O)OC1(C)C(=O)CSc1n[nH]c(-c2ccccc2)n1 (centres unmarked) | 4.86
Cl.Oc1ccc(C(c2nnnn2C2CCCCC2)N2CCOCC2)cc1 (centres unmarked) | 12.6
CC(=O)NCCC(=O)Nc1ncc(S(=O)(=O)c2ccc([N+](=O)[O-])cc2)s1 | 17.3
c1ccc(-c2nnc(CN3CCC4(CC3)OCCO4)o2)cc1 | 8.84
Cc1nc2cc(N3CCCCC3)c(NC(=O)c3cccnc3)cc2c(=O)n1Cc1ccccc1 | 5.96
CC(=O)Oc1cc(C)cc2oc(=O)cc(-c3ccccc3)c12 | 11.4
Cc1ccc(C2C(C#N)=C(N)Oc3c2sc2ccccc32)o1 (centres unmarked) | 7.93
COc1ccc(N(CC(=O)Nc2cc(Cl)ccc2C)S(=O)(=O)c2c(C)noc2C)cc1 | 22.5
CC1CCC(N(C)C2CCN(C)CC2)CC1 (centres unmarked) | 10.1
Cc1nn(-c2ccccc2)c(C)c1-c1nnc(C(F)(F)F)o1 | 11.5
CCc1c(O)nc(SCC(=O)Nc2ccc(C)cc2)n(C2CCCCC2)c1=O | 12
CO/N=C(\Cn1ncc(N2CCCC2)c(Cl)c1=O)c1ccc(Cl)cc1 | 11.1
COCC(=O)Nc1ccc(S(=O)(=O)NCC2CCCO2)cc1 (centres unmarked) | 17.5
CCN(CC)CCNC(=O)c1ccc(NC(=O)c2ccc(C(=O)c3ccccc3)cc2)cc1 | 2.73
CCc1cc(C(=O)N2CCCC(C(=O)c3ccc(OC)c(F)c3)C2)n(C)n1 (centres unmarked) | -14
O=C(O)c1ccc2c(=O)n3c(nc2c1)/C(=C/c1ccccc1Br)CC3 | 8.85
COc1ccc(-n2c(SCC(=O)NCc3ccco3)nc3c([nH]c4ccccc43)c2=O)cc1 | 14.1
CC(=O)c1ccc(N2C(=O)[C@@H]3C(C(=O)CCN4C(=O)c5ccccc5C4=O)=NN[C@@H]3C2=O)cc1 | -4.19

Compound | hERG current change (%, negative = inhibition) at 1uM [%]
Cc1ccccc1OCC(=O)Nc1ccccc1N1CCCCC1 | 13
C[C@H](NC(=O)c1nc[nH]c1C(=O)NCC(=O)OC(C)(C)C)C(=O)OC(C)(C)C | 11.9
COc1ccc(OC)c(NC(=O)Cc2coc3cc(C)cc(C)c23)c1 | 4.9
CCCn1c(NC(=O)CN2C(=O)NC3(CCCC3)C2=O)nc2ccccc21 | 15.8
CC1=C(C(=O)Nc2ccccc2)C(c2ccccc2[N+](=O)[O-])NC(=O)N1 (centres unmarked) | 0.0053
Cc1ccc(-n2c(C(C)C)nc3oc4ccccc4c(=O)c3c2=O)cc1 | 9.75
Cc1ccc(-c2c[n+](CC(=O)Nc3cc(=O)n(C)c(=O)n3C)c3n2CCC3)cc1.[Cl-] | 9.69
COc1ccccc1NC(=O)NCCC1=CCCCC1 | 7.64
CCCS(=O)(=O)c1nc(S(=O)(=O)c2ccc(C)cc2)c(N2CC(C)OC(C)C2)s1 (centres unmarked) | 15.9
COC(=O)c1ccccc1S(=O)(=O)N1CCC(C(=O)N2CCC2)CC1 | 2.77
CC(Sc1nnc(-c2cccs2)n1C1CC1)C(=O)NCC1CCCO1 (centres unmarked) | 1.72
O=C(CN(C(=O)CCC(=O)Nc1nccs1)c1ccc(F)cc1)NCc1ccccc1 | 26.4
C=C(C)CNC(=S)NNC(=O)c1cc(C)oc1C | 6.78
O=C(Nc1c2c(nc3ccccc13)CCCC2)c1ccccc1Cl | 6.76
O=C1C(=O)N(CCS(=O)(=O)c2ccccc2)c2ccc(Cl)cc21 | 13.3
C#CCOCCOCCOCCNc1nc(N2CCN(C(=O)[C@H](CCC(=O)O)n3cc(C(N)Cc4ccc(O)cc4)nn3)CC2)nc(N2CCN(C(=O)[C@H](CCC(=O)O)n3cc(C(N)[C@H](C)CC)nn3)CC2)n1.Cl (some centres unmarked) | 18.3
Cc1nn(-c2nnc(NC3CCCCC3)nn2)c(C)c1Br | 15.9
Cc1cc(C)c(O)c(NC(=S)NC(=O)Cc2ccccc2)c1 | 12.8
COc1nsnc1N1CCOCC1 | 7.66
O=C(NCc1ccccc1CN1CCCC1)c1ccc(Cl)c(N2CCCC2=O)c1 | 8.59
